Source: the supplement of paper PMC3334620
The full ranking holds about 33,000 sequences; the median of “E-score (-0.5 to 0.5)” is about -0.054, and the highest 2% start at about 0.35. Some of the results follow.

Biological target: T1, Stb5 (UniProt P38699)
T1 sequence: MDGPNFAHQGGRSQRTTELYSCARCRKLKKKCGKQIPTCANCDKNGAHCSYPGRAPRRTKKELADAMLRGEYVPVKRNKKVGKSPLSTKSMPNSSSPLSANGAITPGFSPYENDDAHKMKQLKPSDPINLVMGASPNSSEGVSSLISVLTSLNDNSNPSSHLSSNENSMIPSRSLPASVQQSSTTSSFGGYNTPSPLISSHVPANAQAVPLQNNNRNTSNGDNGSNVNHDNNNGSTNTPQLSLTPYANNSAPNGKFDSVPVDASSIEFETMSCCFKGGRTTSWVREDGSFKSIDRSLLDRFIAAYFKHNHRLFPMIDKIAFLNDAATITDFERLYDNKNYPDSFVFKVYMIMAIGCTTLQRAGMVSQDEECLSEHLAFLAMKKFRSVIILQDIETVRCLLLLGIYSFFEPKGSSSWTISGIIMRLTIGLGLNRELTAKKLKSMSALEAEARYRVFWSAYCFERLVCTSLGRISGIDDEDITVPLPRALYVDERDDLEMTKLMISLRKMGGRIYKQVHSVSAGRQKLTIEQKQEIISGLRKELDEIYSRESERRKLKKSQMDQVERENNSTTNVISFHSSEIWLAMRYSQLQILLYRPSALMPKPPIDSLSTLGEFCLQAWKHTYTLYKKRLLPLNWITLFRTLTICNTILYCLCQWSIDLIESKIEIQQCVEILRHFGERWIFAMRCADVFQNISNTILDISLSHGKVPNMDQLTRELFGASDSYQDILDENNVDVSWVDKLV
Assay: PBM E-score (8-mer binding enrichment) (E-score (-0.5 to 0.5)); higher = stronger / more preferred TF binding; most listed sequences are background and not binding sites
Conditions: protein concentration: 200 nM; construct: GST-full length
Method in brief: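 Masliner-normalised scans of fluorescent anti-GST signal were the basis for scoring. That signal came from GST-tagged yeast transcription factors applied at about 100-200 nM to double-stranded universal all-10-mer Agilent arrays on fresh or once-stripped slides. Each ungapped eight-base word, pooled with its reverse complement, received an E-score from the Universal PBM Analysis Suite.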

| Sequence | PBM E-score |
| --- | --- |
| ACTTCGAG | -0.00931 |
| ATCGGCTC | 0.104 |
| AGAATTCC | 0.00074 |
| GACCTTGA | -0.18 |
| AGACGTTA | -0.158 |
| AAACATCA | -0.192 |
| AGGTAGGG | -0.218 |
| TGATTGCA | -0.101 |
| ACCCGCAC | 0.216 |
| CAGGGATC | -0.12 |
| AGGACTCG | -0.251 |
| GACAAATA | 0.237 |
| CAGACGGG | 0.179 |
| AAATCCCG | 0.411 |
| AGGATTGC | -0.344 |
| CGCCGCTC | 0.349 |
| ATGATATC | -0.122 |
| CCCCACGC | -0.13 |
| ATGAGCCA | -0.237 |
| CCCGCCTA | 0.302 |
| GGATTAAC | 0.175 |
| AAGCCCGA | 0.43 |
| CGTCTAGC | 0.0675 |
| AATAAGAC | -0.00827 |
| ATCGACCA | -0.242 |

| Sequence | PBM E-score |
| --- | --- |
| CGAGAATC | -0.0495 |
| ACACAATC | 0.0152 |
| CGTAGTAA | -0.0735 |
| ACAGACGA | -0.146 |
| AATGCGAT | -0.0612 |
| AATCCAGG | -0.254 |
| TCCGAGCA | 0.197 |
| GAAGGCAA | -0.234 |
| AAGATATG | -0.0526 |
| CCAAAGGC | -0.0282 |
| ACCTAGCA | -0.211 |
| ACGTCAGC | -0.167 |
| GCTATGAC | 0.129 |
| AGCCAATC | 0.0243 |
| CCGTCACG | 0.211 |
| GAGTGGAA | -0.103 |
| AGGGCCAA | -0.14 |
| AGTATGCC | 0.0352 |
| CATGGATC | 0.0909 |
| CTAGCTCA | -0.237 |
| AGGAGCAA | -0.169 |
| CTGGTCGA | -0.024 |
| GATAGTTA | 0.0184 |
| AATTCGAA | -0.0427 |
| ACGGTTTC | -0.0169 |

| Sequence | PBM E-score |
| --- | --- |
| GCACATAC | 0.101 |
| ACGTCTCA | -0.324 |
| CACGTGAG | -0.189 |
| CCGCAAAG | 0.185 |
| GCCCGATA | 0.221 |
| AAACCCGT | 0.318 |
| CCGGCTTA | 0.239 |
| GATTCAGA | -0.0219 |
| CCCTACAG | -0.239 |
| ACGCTTCA | -0.319 |
| ATCTTCAC | 0.0523 |
| AGCTCCCC | -0.226 |
| ACATATGT | -0.093 |
| ACAGCGGC | 0.274 |
| CGATCTGA | -0.112 |
| ACGGTGTC | 0.408 |
| CTCTCCAG | -0.243 |
| GACCGCTC | 0.267 |
| AAATTGCA | -0.117 |
| AGTTGTCC | -0.0384 |
| GTCTACGA | -0.188 |
| ATTGAGTC | 0.0139 |
| CGGAACGA | 0.107 |
| GTCTAACA | 0.0742 |
| GCGCGATA | -0.048 |

| Sequence | PBM E-score |
| --- | --- |
| AGGACAAA | -0.167 |
| TGCAGAAA | -0.0798 |
| CATCTATC | -0.00316 |
| AGTAGGTG | 0.103 |
| TCGGGACA | 0.113 |
| GACCCTGA | -0.0347 |
| AAACCGCA | 0.0164 |
| CCCGGTTC | 0.185 |
| CACGTTCA | -0.137 |
| GTCTCAGA | -0.0138 |
| CGATAAAC | -0.0105 |
| GTACCGTA | 0.212 |
| CAAACGTA | -0.103 |
| ACTGACCT | -0.172 |
| CTCTATCA | -0.0979 |
| GGAAAACA | -0.00754 |
| GATTGGGC | 0.033 |
| CAGTACGG | 0.0749 |
| ATGTTTTG | -0.0741 |
| AGGCTACC | -0.128 |
| CGCTATAC | 0.18 |
| GCGTCAGC | 0.124 |
| GCTTGCCC | -0.245 |
| GAGAATTA | -0.0905 |
| AGAATCCA | -0.146 |

| Sequence | PBM E-score |
| --- | --- |
| ACCTCCGG | 0.372 |
| CGACTCGC | -0.0333 |
| GATTAGTA | 0.0787 |
| GTATGTTA | 0.131 |
| AAGATATT | -0.143 |
| GATTAATA | 0.159 |
| GGGGAATA | 0.174 |
| TAAAACAA | -0.0975 |
| ATAACGAC | 0.124 |
| CCAACGAC | -0.118 |
| ACCAGACC | -0.111 |
| CCCACGAC | -0.00847 |
| TCGGGGAA | 0.302 |
| CCAACTCC | 0.116 |
| AATTGAGC | -0.186 |
| CGGGTTAG | 0.0695 |
| AAGGTCAG | -0.206 |
| AGTCCGCG | 0.339 |
| GAGTGAGC | -0.108 |
| CTATTGGC | -0.0713 |
| CGAGGGAA | -0.0535 |
| GGGAACAA | 0.205 |
| ACATCTTA | -0.269 |
| ACTCGTCT | -0.225 |
| AATTTCAC | -0.0465 |

| Sequence | PBM E-score |
| --- | --- |
| AAGCACTC | -0.0364 |
| GCGGAGCA | 0.236 |
| CGCATAGC | 0.156 |
| ACGAAGAT | -0.187 |
| ACACTGTC | -0.186 |
| ATCGTTAA | -0.0225 |
| CTATTTTA | 0.0471 |
| CCTGGTAC | -0.0244 |
| AGTGGTCC | -0.0888 |
| GTAATGTA | -0.202 |
| CCAACAAG | -0.31 |
| CGTTACAG | -0.113 |
| AGGGTTCA | -0.22 |
| GTTACACA | -0.108 |
| ATAATAGG | -0.0545 |
| ATCATGTC | 0.0278 |
| ACTGTACT | -0.344 |
| CAGAGGGG | -0.107 |
| CTCTATTA | -0.0617 |
| AAGGCTAG | -0.212 |
| ACCCTGTA | -0.128 |
| CGTTGGCC | 0.0255 |
| GTTTCTAA | 0.0616 |
| CAGTGCAA | -0.218 |
| GTTTACTA | -0.0166 |

| Sequence | PBM E-score |
| --- | --- |
| GGCGTTTA | 0.278 |
| TACACCCA | -0.0438 |
| CAAATTTG | -0.0835 |
| ACCAGTCA | 0 |
| ATAAATTA | 0.0577 |
| CACCATAC | -0.0843 |
| GTTGACGA | -0.196 |
| CAACTCTC | -0.219 |
| CCAATCCC | -0.0254 |
| AAGTTAAC | 0.00531 |
| ACTATCTC | 0.0778 |
| CGTATGTC | 0.0973 |
| CCTTGCGC | -0.0818 |
| CCTACACG | -0.161 |
| CCAAAGGG | -0.177 |
| ACAGCAGA | -0.139 |
| GGACATCC | 0.148 |
| TTAATGAA | -0.036 |
| CTATCAAC | 0.024 |
| GCTTCCCA | -0.0491 |
| AAAGCTTC | -0.21 |
| ATATCGAT | -0.233 |
